# Experimental data taken from the supplement of paper PMC4166925.
# ± gives the standard deviation of the averaged measurements. Over roughly 33,000 sequences, “E-score (dimensionless, -0.5 to 0.5)” has its median near -0.046; the highest 2% begin near 0.36. Some of the results follow.
# System: T1, SpTbr T-box DNA-binding domain (GST fusion)
# T1 sequence: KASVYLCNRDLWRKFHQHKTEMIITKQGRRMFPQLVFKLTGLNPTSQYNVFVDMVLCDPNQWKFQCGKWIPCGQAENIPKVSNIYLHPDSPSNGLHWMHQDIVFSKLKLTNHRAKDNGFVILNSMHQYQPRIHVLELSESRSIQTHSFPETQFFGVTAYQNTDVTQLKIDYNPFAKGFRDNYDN
# Assay: PBM E-score of 8-mer (E-score (dimensionless, -0.5 to 0.5)); Tbr is Tbrain of the sea star Patiria miniata (Pm) or the sea urchin Strongylocentrotus purpuratus (Sp); higher = stronger binding preference; most listed sequences are background and not binding sites
# Settings: the construct has about 5 more residues each side
# How it was run: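 Universal Agilent oligonucleotide arrays, made double-stranded by primer extension, were incubated with 200 nM GST-fused Tbr T-box DNA-binding domain in PBS (pH 7.5). The protein was expressed in BL21 E. coli at 20 °C and purified by glutathione affinity chromatography. After scanning and quantification, the Universal PBM Analysis Suite assigned an enrichment E-score to each ungapped 8-mer, averaged over duplicate arrays.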
row,Sequence,PBM E-score of 8-mer
1,CGGTCACG,0.241 ± 0.054
2,GCCGGCTA,-0.038 ± 0.068
3,GTCAGTGA,0.204 ± 0.022
4,TCCGATCA,0.0994 ± 0.032
5,ACATATAT,-0.0491 ± 0.069
6,ACGACGGC,-0.0199 ± 0.027
7,CACTACGG,0.102 ± 0.022
8,AGTGACGG,0.218 ± 0.027
9,ACTTTGCC,-0.058 ± 0.051
10,AGAGAAAA,-0.176 ± 0.038
11,ATTGGACG,-0.289 ± 0.017
12,GTATATAA,-0.119 ± 0.034
13,CCCTTTGC,-0.174 ± 0.0099
14,ATTTCGGC,0.0621 ± 0.039
15,AGTGTTTA,0.245 ± 0.062
16,CAGCTGCC,-0.0128 ± 0.074
17,AGCCAAGA,-0.218 ± 0.069
18,ACAATCCA,-0.0282 ± 0.062
19,AACTTAGC,0.0443 ± 0.063
20,AGATAAAG,-0.181 ± 0.053
21,GGATTGCC,-0.0182 ± 0.03
22,ATTTAAAT,-0.06656 ± 0.00039
23,ATGACTCG,-0.0945 ± 0.034
24,ACACGAGC,0.143 ± 0.065
25,CAAGCATG,0.0445 ± 0.0049

row,Sequence,PBM E-score of 8-mer
1,CAATTCAA,-0.0384 ± 0.006
2,ACCTTAAT,0.133 ± 0.004
3,AATCGGGC,-0.214 ± 0.038
4,CATTCGCG,0.389 ± 0.0059
5,CGACGGGC,-0.126 ± 0.0078
6,CTAACGGC,0.203 ± 0.012
7,AGTTGGCA,0.284 ± 0.0051
8,ACTTCACT,0.147 ± 0.01
9,ATTTAAAG,-0.21 ± 0.099
10,AATAAGGA,-0.177 ± 0.017
11,GCAATGAA,0.029 ± 0.0097
12,GTGATAGA,0.303 ± 0.014
13,GCGGAAGC,-0.00368 ± 0.1
14,CTGGGACC,-0.174 ± 0.015
15,CCGCGATC,0.221 ± 0.054
16,CATTCCAC,0.00277 ± 0.0014
17,CTGCTCAA,-0.0979 ± 0.022
18,AACCATAG,-0.0674 ± 0.025
19,ACTGTGAC,0.237 ± 0.023
20,GGCAAGCA,-0.152 ± 0.026
21,GGCTTAGA,-0.287 ± 0.016
22,AACTCCAG,-0.232 ± 0.096
23,GGATGACA,0.146 ± 0.068
24,ATCCAAGG,0.0545 ± 0.049
25,CTTAGTTA,-0.145 ± 0.069

row,Sequence,PBM E-score of 8-mer
1,ACAGTCGG,0.0268 ± 0.042
2,TAACACGA,0.288 ± 0.047
3,AGTCCTAA,-0.2154 ± 0.0017
4,TGGACTAA,-0.235 ± 0.028
5,ACACACGT,0.288 ± 0.0081
6,AGCAAAAA,-0.0315 ± 0.021
7,ACTATCGG,-0.145 ± 0.0086
8,CAATGTCA,0.227 ± 0.028
9,CTTCCGTA,-0.158 ± 0.14
10,ACGTAATC,-0.0447 ± 0.0023
11,TCACGGCA,0.186 ± 0.013
12,CCGAGGCG,0.296 ± 0.015
13,ACTCTGTG,-0.0534 ± 0.07
14,CCACATCA,0.213 ± 0.0094
15,AACCCCGG,-0.1205 ± 0.00093
16,ATGGATTC,-0.138 ± 0.041
17,ACCCCTGA,-0.0646 ± 0.14
18,AAGGTCAT,-0.251 ± 0.011
19,CGGTGCCC,-0.174 ± 0.03
20,AATTGAGT,-0.2 ± 0.0027
21,AAAAAAGT,-0.074 ± 0.11
22,CTGTAACA,0.284 ± 0.024
23,GAATGGCC,0.0193 ± 0.0058
24,CTCCGGTC,-0.0822 ± 0.024
25,CATCGAGC,-0.17 ± 0.058

row,Sequence,PBM E-score of 8-mer
1,CAGTCGTC,-0.0677 ± 0.025
2,CCTCCTGA,-0.0599 ± 0.024
3,CATTCAAG,-0.0193 ± 0.035
4,CTACTTAA,0.0422 ± 0.019
5,CCTCCGTA,-0.0797 ± 0.049
6,AGTCCTAG,-0.136 ± 0.056
7,GAGTATGC,-0.243 ± 0.051
8,GGCTCACA,0.161 ± 0.053
9,GACACGTA,0.29 ± 0.0077
10,CAGCGTAG,-0.168 ± 0.0058
11,CATGTCGG,-0.0356 ± 0.033
12,AAGGACCG,-0.114 ± 0.058
13,AGCGTCTC,-0.00741 ± 0.05
14,ACCGTGAC,0.0997 ± 0.0054
15,ACTTGACC,-0.233 ± 0.058
16,CGTGGTAC,-0.0112 ± 0.075
17,AAAAATGG,-0.329 ± 0.016
18,TCCATACA,-0.279 ± 0.03
19,TATTTCCA,-0.0513 ± 0.025
20,CGGAGCCC,-0.273 ± 0.033
21,AGAAGACA,0.0347 ± 0.065
22,AGGAGAGC,-0.223 ± 0.017
23,CTATAGCA,-0.0519 ± 0.022
24,AAGCGTTG,0.192 ± 0.056
25,ATACAGTA,-0.0823 ± 0.069

row,Sequence,PBM E-score of 8-mer
1,CCGGGCAG,0.00502 ± 0.076
2,CAGCCGCG,0.0443 ± 0.017
3,AGAGGCAT,-0.31 ± 0.012
4,AGACATAC,-0.0637 ± 0.046
5,CCAGCAAC,0.132 ± 0.08
6,CGGATTTA,-0.0558 ± 0.011
7,AAAGAGAC,0.014 ± 0.013
8,ATGCATCG,-0.277 ± 0.031
9,AGCGTCCG,-0.0385 ± 0.011
10,GAATGTTA,-0.116 ± 0.042
11,AATTTAGG,-0.123 ± 0.019
12,ACGGCGAC,0.0465 ± 0.15
13,ACTCCGGC,0.0182 ± 0.027
14,GATGCTAA,-0.0514 ± 0.076
15,AAGCATAA,-0.188 ± 0.034
16,GACAACTA,0.126 ± 0.089
17,ATCGTAGC,-0.0987 ± 0.018
18,GATTGGCA,-0.00044 ± 0.062
19,ACGAGCCT,-0.103 ± 0.074
20,ACCAGCAA,0.0682 ± 0.1
21,CTACCCTC,0.00491 ± 0.053
22,AGCTAGAC,-0.0541 ± 0.11
23,CGTAGGCC,-0.165 ± 0.05
24,GCCCTCGA,-0.117 ± 0.0067
25,AGCGTATC,-0.174 ± 0.059

row,Sequence,PBM E-score of 8-mer
1,GCACCCAA,0.129 ± 0.0065
2,ATGGGTTG,-0.0245 ± 0.061
3,CTAAGCAG,-0.0896 ± 0.044
4,TCAATCCA,-0.0551 ± 0.018
5,GCGATCAA,0.18 ± 0.035
6,GTCATGTA,-0.103 ± 0.042
7,ATGAGATA,-0.0124 ± 0.06
8,CCCGTCTC,-0.111 ± 0.024
9,TCCGAGGA,-0.273 ± 0.11
10,CCGGTCCG,-0.227 ± 0.036
11,GGACTTAC,-0.16 ± 0.046
12,CTAGTCGC,0.17 ± 0.037
13,CAGGAACA,-0.0592 ± 0.01
14,CTAGACAA,-0.0789 ± 0.0066
15,AGGGGGGC,-0.297 ± 0.0057
16,GAAGCGGC,0.0332 ± 0.044
17,AACTAGCC,-0.195 ± 0.016
18,GACGTGAA,0.103 ± 0.064
19,ACAGCAAG,0.0648 ± 0.034
20,ACGGCCCC,-0.245 ± 0.019
21,ATAACTTG,-0.0421 ± 0.068
22,TCCGTCAA,-0.0217 ± 0.072
23,ATTTACAA,0.0554 ± 0.12
24,AATTTCAG,-0.112 ± 0.14
25,AATAACCG,-0.0704 ± 0.021

row,Sequence,PBM E-score of 8-mer
1,CCTTGCCC,-0.306 ± 0.024
2,AGCCAAGG,-0.118 ± 0.076
3,AAAACTTA,-0.0204 ± 0.0067
4,TCACAGGA,0.217 ± 0.02
5,CCATCTTC,-0.066 ± 0.0012
6,TACATATA,-0.309 ± 0.025
7,AGACTAGA,-0.166 ± 0.012
8,TGTTGTAA,0.173 ± 0.068
9,GGTCCGAA,-0.161 ± 0.035
10,ACACCAAC,0.33 ± 0.042
11,GCGGAACC,-0.233 ± 0.12
12,ACGCTACA,0.0808 ± 0.067
13,ATGATGCG,0.103 ± 0.045
14,CCCGAGTC,-0.236 ± 0.073
15,CCGCGCCG,-0.0726 ± 0.2
16,CAACGTGA,0.118 ± 0.025
17,CACACCAC,0.394 ± 0.015
18,AATCCTTC,-0.185 ± 0.0063
19,TACGTTCA,-0.0963 ± 0.066
20,GTTTGTTA,0.1648 ± 0.00076
21,AAACTGCG,0.126 ± 0.042
22,ATGCGCGG,-0.0645 ± 0.066
